Data as given in PMC4336329 (PLoS ONE, 2015).
In all, about 310,000 compounds went through this assay and about 14,000 (4.5%) showed an effect of 50% or more. Effects have a minus sign here. Some of the results follow.

Each molecule was assayed against human ether-à-go-go-related gene (hERG) potassium channel (human, UniProt Q12809) (assay: primary screen, population patch clamp on CHO cells stably expressing hERG).
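Also: peak tail current of the secondary pulse compared with the same well before compound.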

human ether-à-go-go-related gene (hERG) potassium channel, sequence (Q12809 whole entry, looked up): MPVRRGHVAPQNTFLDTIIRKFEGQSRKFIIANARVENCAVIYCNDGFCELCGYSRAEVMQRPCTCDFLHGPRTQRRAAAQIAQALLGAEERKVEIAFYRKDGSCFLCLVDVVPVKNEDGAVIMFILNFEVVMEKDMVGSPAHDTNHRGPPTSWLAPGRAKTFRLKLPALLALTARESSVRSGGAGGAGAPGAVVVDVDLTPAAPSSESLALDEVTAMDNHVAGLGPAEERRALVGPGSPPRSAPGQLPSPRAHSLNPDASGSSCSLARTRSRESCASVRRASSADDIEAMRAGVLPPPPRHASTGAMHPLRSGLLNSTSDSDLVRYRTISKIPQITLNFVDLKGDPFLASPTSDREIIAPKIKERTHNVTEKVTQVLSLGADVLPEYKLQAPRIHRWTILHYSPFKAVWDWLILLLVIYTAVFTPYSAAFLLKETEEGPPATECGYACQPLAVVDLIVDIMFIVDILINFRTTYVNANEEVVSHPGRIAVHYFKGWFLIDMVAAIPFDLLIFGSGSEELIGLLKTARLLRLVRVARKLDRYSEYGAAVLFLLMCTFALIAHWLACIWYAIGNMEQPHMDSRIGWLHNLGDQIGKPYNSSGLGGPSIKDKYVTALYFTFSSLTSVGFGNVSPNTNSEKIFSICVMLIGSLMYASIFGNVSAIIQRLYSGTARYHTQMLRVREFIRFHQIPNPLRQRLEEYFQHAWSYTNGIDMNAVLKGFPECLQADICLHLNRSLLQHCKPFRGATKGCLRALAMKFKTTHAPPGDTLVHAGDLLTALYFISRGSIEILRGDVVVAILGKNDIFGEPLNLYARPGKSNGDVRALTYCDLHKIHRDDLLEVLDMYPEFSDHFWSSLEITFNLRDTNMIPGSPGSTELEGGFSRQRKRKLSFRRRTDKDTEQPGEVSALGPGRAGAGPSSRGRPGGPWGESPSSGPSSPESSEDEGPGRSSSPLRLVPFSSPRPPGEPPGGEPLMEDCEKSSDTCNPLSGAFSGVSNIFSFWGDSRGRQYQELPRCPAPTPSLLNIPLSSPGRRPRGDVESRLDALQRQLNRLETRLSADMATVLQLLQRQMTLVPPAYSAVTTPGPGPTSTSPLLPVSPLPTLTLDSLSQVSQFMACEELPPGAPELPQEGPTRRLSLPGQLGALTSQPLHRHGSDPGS

Compound | hERG current change (%, negative = inhibition) at 10uM [%]
CN(C)CCC(Oc1ccccc1OCc1ccccc1)c1ccccc1.O=C(O)C(=O)O (centres unmarked) | -68.6
Nc1ccc(S(=O)(=O)Nc2nccs2)cc1 | 14.8
COc1ccccc1N1CCN(C(=S)Nc2ccc3nc(N4CCOCC4)cc(C)c3c2)CC1 | -49.3
CCCc1[nH]n(-c2ccc(F)cc2)c(=O)c1C=Nc1cccc(F)c1 | 11.9
O=C(CCS(=O)(=O)c1ccccc1)Nc1ccccc1N1CCOCC1 | -8.2
CC1CC(C)CN(C(=O)C(C)N(C)CC(=O)Nc2ccc(F)cc2)C1 (centres unmarked) | -20.6
Cl.Nc1cccc(Oc2c(F)c(F)c(Oc3cccc(N)c3)c(F)c2F)c1 | 5.82
COc1ccc(NC(=O)c2ccc(CN3CCc4ccccc4C3)cc2)cc1OC | 11.4
CCOC(=O)C1(Cc2ccccc2C(F)(F)F)CCN(C2CCC2)CC1 | -36.6
Cc1cc(=O)[nH]c2ccc(S(=O)(=O)Nc3ccc(O)cc3)cc12 | 20.9
CCc1ccc(NC(=O)CSc2ccc(-c3cccnc3)nn2)cc1 | -23.2
Cl.Oc1ccccc1Nc1nc(NCC2CCCO2)c2ccccc2n1 (centres unmarked) | -67.5
CN(C)c1ccnc2sc3c(=O)n(Cc4ccccc4)cnc3c12 | -51
Cc1c(Cl)cccc1N1C(=O)C(N2C(=O)c3cccc([N+](=O)[O-])c3C2=O)C1c1cccs1 (centres unmarked) | 7.24
Cc1ccc(C(=O)COC(=O)c2cc(=O)[nH]c3ccccc23)cc1C | 15.3
O=c1c(-c2cccc(Cl)c2)c[nH]n1-c1ccccc1 | 25.5
CC(=O)c1sc(NC(=O)c2cc(-c3ccccc3)nn2-c2ccccc2)nc1C | 16.2
CC(C)c1c(O)nc(SCC(=O)Nc2ccc3c(c2)CCC3)[nH]c1=O | 10.3
CN1C(=O)/C(=C/c2ccc(-c3ccccc3[N+](=O)[O-])o2)SC1=Nc1ccc(Cl)c(C(=O)O)c1 | 7.25
O=C1c2ccccc2N2C(=O)c3ccccc3C2N1Cc1ccccc1 (centres unmarked) | -57.9
COc1ccc(-c2nnn(CC(=O)N(CC3CCCO3)C(C(=O)NC(C)(C)C)c3ccco3)n2)cc1OC (centres unmarked) | -1.6
CC1CCN(C(=O)Cn2c(=O)n(CCCC(=O)NCc3ccco3)c(=O)c3sccc32)CC1 | 5.2

Compound | hERG current change (%, negative = inhibition) at 10uM [%]
Cc1cc(C)c2cc(C#N)c(NCCCNC(=O)CCC(=O)O)nc2c1 | 12.2
Cc1ccc(C(=O)N2CCc3ccccc3C2)cc1S(=O)(=O)N1CCOCC1 | -31.1
COc1ccc(CC(=O)NCc2cccs2)cc1 | 5.8
CNC(=O)N(C1=NCCCCC1)c1ccc(Br)cc1 | -7.48
Cc1cc(NC(=O)COC(=O)C2CCN(S(=O)(=O)c3ccccc3)CC2)c([N+](=O)[O-])cc1C | -41.6
Clc1ccccc1OCc1nnc(-c2ccccc2Br)o1 | 13.1
COc1ccc(CCCc2nnc(SCC(=O)Nc3ccccc3F)o2)cc1 | -10
COc1ccc(NS(=O)(=O)c2cccc(NC(=O)NCCCl)c2)cc1 | 4.65
COc1cccc(/C=C/C(=O)Nc2ccc(C(=O)Nc3cccc(S(N)(=O)=O)c3)cc2)c1OC | 15.8
O=C(COC(=O)CCC(=O)c1ccc(Cl)cc1)NCc1ccco1 | 8.01
COc1ccc(NC(=O)Cc2coc3cc(C)c(C(C)C)cc23)cc1S(=O)(=O)N1CCOCC1 | -24.6
CCOC(=O)C1C(=O)NC(c2ccccc2)=NC1c1ccc(F)cc1 (centres unmarked) | 3.44
C/C=C/C(O)c1ccc2ccccc2c1 (centres unmarked) | 16.5
COc1ccc2oc(=O)c(/C(C)=N/NC(=O)c3ccncc3)cc2c1 | -8.39
Cc1ccc(OCc2nnc(NC(=O)c3ccco3)s2)cc1 | 6.86
CC(=O)Nc1c(O)nc(SCC(=O)Nc2nnc(CC(C)C)s2)[nH]c1=O | 13.9
CCOC(=O)c1c(O)c2ccccc2n(C)c1=O | 27.7
COc1ccc(C(=O)N2C[C@H]3C[C@@H](C2)c2cccc(=O)n2C3)cc1OC | 3.12
COc1cc(NC(=S)N2CCN(CCO)CC2)c(OC)cc1Cl | 17.3
Cc1ccccc1S(=O)(=O)Oc1ccccc1C(=O)Oc1ccccc1 | -1.26
O=c1cc(-c2ccccc2)c2cc(Cl)c(O)c(CN3CCOCC3)c2o1 | -11
Cc1nn2c(NCCN(C)C)c3c(nc2c1-c1ccccc1)CCCC3 | -41.4

Compound | hERG current change (%, negative = inhibition) at 10uM [%]
CC(OCCN1CCCC1)(c1ccc(F)cc1)c1ccc(F)cc1.Cl | -63.1
Cc1cc(C)c(NC(=O)C2CCCN(S(=O)(=O)c3c(C)noc3/C=C/N(C)C)C2)c(C)c1 (centres unmarked) | 4.13
Nc1ccc(-c2nc3ccc(N)cc3s2)cc1 | 10.2
c1ccc2oc(-c3ccn[nH]3)cc2c1 | 8.06
CCN(CC(=O)Nc1c(F)cccc1F)C(=O)c1cc(S(=O)(=O)N(C)C)ccc1N1CCCC1 | -2.85
Cc1ccccc1NC(=O)Cn1c(O)c(N=NC(=O)c2ccccc2O)c2ccccc21 | 17.5
O=C(CN1C(=O)/C(=C\C=C\c2ccccc2)SC1=S)Nc1ccc(F)cc1 | 12.8
CC12CCC(=O)N1C(C(=O)NCCc1ccc(F)cc1)CS2 (centres unmarked) | 9.67
CCC(CC)c1nnc(NC(=O)CSCC(=O)Nc2cc(C)on2)s1 | 7.58
CC(Oc1ccc(Br)cc1Br)C(=O)Nc1cccnc1Cl (centres unmarked) | 10.4
O=[N+]([O-])c1cccc(CSC2=NCCN2S(=O)(=O)c2ccccc2)c1 | -6.78
CCCn1c2c(c(=N)c3c1CCC3)CCCC2.I | 6.05
Cc1ccc(-c2cc(C(F)(F)F)nn2-c2ccc(S(N)(=O)=O)cc2)cc1 | 2.42
O=C(Nc1ccc(O)cc1C(=O)O)c1ccc2c(c1)C(=O)N(Cc1ccco1)C2=O | -16.8
c1cncc(CNc2ncnc3sccc23)c1 | 17.8
O=C(CSc1ncnc2c1oc1ccccc12)Nc1ccccc1C(F)(F)F | 11.9
CCc1ccc2c(c1)C1(SC(NC(C)=O)=NN1C(C)=O)C(=O)N2C(C)C (centres unmarked) | 6.23
COc1ccc(Nc2cc(C(=O)NCCCN3CCOCC3)c3ccccc3n2)cc1OC | -5.34
CCn1nc(C)c(NC(=O)c2ccc(Cl)cc2)c1C | 5.72
CS(=O)(=O)Nc1cccc(S(=O)(=O)N2CCN(C(=O)c3ccccc3)CC2)c1 | -18.9
O=C(NCc1ccco1)C1c2ccccc2Oc2ccccc21 | 2.24
CCN1C(=O)C(CC(=O)Nc2ccc(C)cc2C)Nc2cc(S(=O)(=O)N(C)C)ccc21 (centres unmarked) | -36.5

Compound | hERG current change (%, negative = inhibition) at 10uM [%]
O=C(CSCc1ccccc1)NCCCN1CCOCC1 | 8.67
O=C(CNC(=O)c1ccc(Br)o1)NNC(=O)c1ccccc1F | -23.7
CCOC(=O)N1CCN(CC(=O)Nc2cc3c(cc2C(C)=O)OCO3)CC1 | -1.3
Cc1cc2cc(OCC(=O)O)ccc2n1C | 6.21
COc1ccc2cc(S(=O)(=O)N3CCCCC3)ccc2c1S(=O)(=O)N1CCCCC1 | 2.92
N#CCCn1cc(C=O)c(-c2cccs2)n1 | 1.4
COC(=O)c1ccc(Cn2cc(Cl)cn2)o1 | 21.5
Cc1ccc(C)c(NS(=O)(=O)c2cc(C(=O)Nc3cccc(N(C)S(C)(=O)=O)c3)ccc2C)c1 | -21.1
C=CCNCCCOc1ccc(C)cc1Br.Cl | -9.56
CCOC(=O)C1CN(S(=O)(=O)c2ccccc2)CCN1S(=O)(=O)c1ccccc1 (centres unmarked) | -17.2
O=C(COc1ccc2c(c1)CCC2)N1CCN(c2cccc(C(F)(F)F)c2)CC1 | -6.81
CC(=O)NCCc1nc2cc(NC(=O)c3ccccc3C)ccc2n1C | 7.35
C/C=C(/C(=C/C)c1ccc(O)cc1)c1ccc(O)cc1 | 5.26
CCOC(=O)c1c(-c2ccc(Cl)cc2)csc1NC(=O)CNCc1ccco1.O=C(O)C(=O)O | -28.9
O=C(c1ccc(N2CCN(C3CC(=O)N(c4ccc(F)cc4)C3=O)CC2)cc1)c1cccnc1 (centres unmarked) | -50.6
CCOC(=O)c1nsnc1NCCSC(=N)N.I | 3.69
CCCS(=O)(=O)c1nc(S(=O)(=O)c2ccc(C)cc2)c(NCCCN(C)C)s1 | -25.3
Cc1ccc2nc(CSc3nc(C)cc(C)c3C#N)[nH]c2c1 | -12.1
CCC/C=C1/CCCOC(C(=O)NCc2cc(C)n(C)n2)(C(F)(F)F)C1 (centres unmarked) | 5.48
COc1ccc(-c2c(C)oc3c(CN4CCOCC4)c(O)ccc3c2=O)cc1OC | -1.52
